The values below come from the antibiotic and cytotoxicity screens of Wong et al. (2023).

Molecules are shown by their SMILES. Some of the results follow.

Test [1] deals with HSkMC (human skeletal muscle cells). The test is described as follows: cytotoxicity call (relative viability < 0.9). The settings on record: 10 µM.
The subject of test [2] is HepG2. The experiment in a line: cytotoxicity call (relative viability < 0.9). The settings on record: 10 µM.
For test [3], the system named is S. aureus RN4220. The experiment in a line: growth inhibition call (relative growth <= 0.2). As to conditions: 50 µM.

On to `COc1ccc(NC(=O)Nc2ccc3c(c2)C(=O)N([C@@H](C)CO)C[C@H](C)[C@@H](CN(C)C(=O)Nc2ccc(OC)cc2)OCCCC[C@H](C)O3)cc1`, for which the cytotoxicity call in test [1] and in test [2] was “inactive” in each case. In test [3], the growth inhibition call was “inactive”.
Consider `COCC(=O)N1C[C@]2(CCN(CC2)C(=O)CN2CCOCC2)c2c([nH]c3cc(ccc23)OC)[C@H]1CO`, for which the cytotoxicity call in test [1] and in test [2] was “inactive” throughout. In addition, the growth inhibition call in test [3] is “inactive”.
For the compound `C[C@H]1CN([C@@H](C)CO)C(=O)c2cc(NS(C)(=O)=O)ccc2O[C@H]1CN(C)Cc1ccc(C(=O)Nc2ccccc2N)cc1`, the cytotoxicity call in test [1] and in test [2] was “inactive” throughout. For the same compound, the growth inhibition call in test [3] was “inactive”.
On to `C[n+]1cccc(C(=O)[O-])c1`, for which the cytotoxicity call in test [1] and in test [2] was “inactive” each time. The growth inhibition call in test [3] was “inactive”.
Consider `COc1ccc(S(=O)(=O)Nc2ccc3c(c2)C(=O)N([C@@H](C)CO)C[C@@H](C)[C@@H](CN(C)C(=O)Nc2ccccc2)OCCCC[C@@H](C)O3)cc1`, for which the cytotoxicity call in test [1] and in test [2] was “inactive” in each case. In test [3], the growth inhibition call was “inactive”.
Consider `N[C@@H](c1ccncc1)c1ccc(OCc2ccccc2)cc1`, for which the cytotoxicity call in test [1] and in test [2] was “inactive” each time. Further, the growth inhibition call in test [3] is “inactive”.
As for `COc1ccc(CN(C)C[C@@H]2OCCCC[C@@H](C)Oc3ccc(NC(=O)Nc4ccc(OC)cc4)cc3C(=O)N([C@@H](C)CO)C[C@@H]2C)cc1`, the cytotoxicity call in test [1] is “inactive”. Moreover, in test [2], the cytotoxicity call is “active”. For the same compound, in test [3], the growth inhibition call is “inactive”.
For `Cc1noc(C)c1NC(=O)Nc1ccc2c(c1)C(=O)N([C@@H](C)CO)C[C@H](C)[C@@H](CN(C)Cc1ccccc1)OCCCC[C@H](C)O2`, the cytotoxicity call in test [1] and in test [2] was “inactive” each time. Besides, the growth inhibition call in test [3] was “inactive”.
On to `CC(C)NC(=O)N(C)C[C@H]1Oc2ccc(NC(=O)Nc3ccc4c(c3)OCO4)cc2C(=O)N([C@@H](C)CO)C[C@H]1C`, for which the cytotoxicity call in test [1] and in test [2] was “inactive” each time. In addition, the growth inhibition call in test [3] is “inactive”.
`C[C@@H]1CN([C@@H](C)CO)C(=O)Cc2cc(NC(=O)Nc3cccc4ccccc34)ccc2O[C@@H]1CN(C)C(=O)Nc1ccccc1`: the cytotoxicity call in test [1] and in test [2] was “inactive” each time. Besides, the growth inhibition call in test [3] is “inactive”.
As to `C[C@H]1CN([C@@H](C)CO)C(=O)Cc2cc(NS(=O)(=O)c3ccc(F)cc3)ccc2O[C@H]1CN(C)S(=O)(=O)c1cn(C)cn1`, the cytotoxicity call in test [1] and in test [2] was “inactive” throughout. The growth inhibition call in test [3] is “inactive”.
On to `COC(=O)c1cn(C[C@@H](Cc2ccccc2)NC(=O)N[C@H](CO)CCc2oc(C(C)=O)c(C(=O)OC)c2C(=O)OC)nn1`, for which the cytotoxicity call in test [1] and in test [2] was “inactive” each time. In test [3], the growth inhibition call is “inactive”.
For the compound `Cc1ccc(S(=O)(=O)Nc2ccc3c(c2)CC(=O)N([C@H](C)CO)C[C@H](C)[C@H](CN(C)S(=O)(=O)c2cccs2)O3)cc1`, the cytotoxicity call in test [1] and in test [2] was “inactive” throughout. Besides, the growth inhibition call in test [3] is “inactive”.
In the case of `C[C@@H]1O[C@@H](O[C@H]2[C@H](Oc3cc(O)c(C(=O)CCc4ccc(O)cc4)c(O)c3)O[C@H](CO)[C@@H](O)[C@@H]2O)[C@H](O)[C@H](O)[C@H]1O`, the cytotoxicity call in test [1] and in test [2] was “inactive” each time. Also, the growth inhibition call in test [3] is “inactive”.
As for `COc1cccc(OC)c1C(=O)NC1C(=O)N2C1SC(C)(C)C2C(=O)[O-].[Na+]` (stereo unspecified), the cytotoxicity call in test [1] and in test [2] was “inactive” in each case. Further, in test [3], the growth inhibition call is “active”.
For the compound `COc1ccc(C2Sc3ccccc3N(CCN(C)C)C(=O)C2OC(C)=O)cc1.Cl` (stereo unspecified), the cytotoxicity call in test [1] and in test [2] was “inactive” each time. Further, the growth inhibition call in test [3] was “inactive”.
Take `C[C@H](O)C#Cc1ccc2c(c1)O[C@@H](CN(C)C(=O)c1ccccc1)[C@H](C)CN([C@@H](C)CO)S2(=O)=O`: the cytotoxicity call in test [1] and in test [2] was “inactive” throughout. Besides, in test [3], the growth inhibition call was “inactive”.
With `CO[C@H](CN(C)S(=O)(=O)c1cccc(Cl)c1)[C@H](C)CN([C@@H](C)CO)S(=O)(=O)c1cccc(Cl)c1`, the cytotoxicity call in test [1] and in test [2] was “inactive” throughout. Besides, the growth inhibition call in test [3] was “inactive”.
As to `Cl.NC1CCN(c2c(F)cc3c(=O)c(C(=O)O)cn(C4CC4)c3c2Cl)C1` (stereo unspecified), the cytotoxicity call in test [1] and in test [2] was “inactive” each time. The growth inhibition call in test [3] is “active”.
With `COc1ccc(CN(C)C[C@H]2OCCCC[C@@H](C)Oc3ccc(NC(=O)Nc4ccccc4)cc3C(=O)N([C@H](C)CO)C[C@@H]2C)cc1`, the cytotoxicity call in test [1] and in test [2] was “inactive” throughout. For the same compound, the growth inhibition call in test [3] is “inactive”.
Turning to `COc1ccc(S(=O)(=O)Nc2ccc3c(c2)C(=O)N([C@H](C)CO)C[C@H](C)[C@H](CN(C)CC2CC2)O3)cc1`, the cytotoxicity call in test [1] and in test [2] was “inactive” throughout. The growth inhibition call in test [3] is “inactive”.
Regarding `C[C@@H]1CN([C@H](C)CO)C(=O)Cc2cc(NC(=O)CCC(F)(F)F)ccc2O[C@H]1CN(C)Cc1ccc(C(=O)Nc2ccccc2N)cc1`, the cytotoxicity call in test [1] and in test [2] was “inactive” throughout. In addition, the growth inhibition call in test [3] is “inactive”.
As to `C[C@@H]1CCCCO[C@@H](CN(C)C(=O)Nc2ccc(F)cc2)[C@H](C)CN([C@@H](C)CO)C(=O)c2cc(NC(=O)Nc3ccccc3)ccc2O1`, the cytotoxicity call in test [1] and in test [2] was “inactive” throughout. Further, the growth inhibition call in test [3] was “inactive”.
Regarding `C[C@@H]1CCCCO[C@H](CN(C)C(=O)Nc2cccc3ccccc23)[C@H](C)CN([C@H](C)CO)C(=O)c2cc(NS(=O)(=O)c3ccccc3)ccc2O1`, the cytotoxicity call in test [1] was “inactive”. Also, the cytotoxicity call in test [2] is “active”. For the same compound, the growth inhibition call in test [3] is “inactive”.
Regarding `Cc1ccc(S(=O)(=O)Nc2ccc3c(c2)C(=O)N(C)[C@H]2CC[C@@H](CC(=O)NCCc4ccncc4)O[C@H]2CO3)cc1`, the cytotoxicity call in test [1] and in test [2] was “inactive” each time. Moreover, the growth inhibition call in test [3] is “inactive”.
For the compound `C[C@H](CO)N1C[C@H](C)[C@H](CN(C)S(=O)(=O)c2cn(C)cn2)Oc2cc(C#Cc3cccc(F)c3)ccc2S1(=O)=O`, the cytotoxicity call in test [1] and in test [2] was “inactive” throughout. The growth inhibition call in test [3] was “inactive”.
Regarding `COCC#Cc1cnc2c(c1)C(=O)N([C@@H](C)CO)C[C@H](C)[C@@H](CN(C)C(=O)Nc1cc(F)ccc1F)O2`, the cytotoxicity call in test [1] and in test [2] was “inactive” throughout. Moreover, in test [3], the growth inhibition call is “inactive”.
